In the supplement of paper PMC4967469:
Lines with a small IC50 respond at low doses; where the fit passes the top or lowest dose, that dose stands as a limit. The AUC spans the tested range (256-fold, ending at the top dose) of the same fit; values near 1 show little effect. For some assays here: The top dose, if marked as inferred, was calculated from the reported fits. For some assays here: Drugs with an entry number were screened twice under separate entries, and the two screens often disagree.

Experiments:
Experiment in all cases: Viability of human cancer cell lines after 72 h of drug (GDSC screen)
Pazopanib = compound: Cc1ccc(Nc2nccc(N(C)c3ccc4c(C)n(C)nc4c3)n2)cc1S(N)(=O)=O [Pazopanib]; conditions: top dose 8 µM
Experimental: (§1)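 Human cancer cell lines in 384-well plates, medium with 10% serum, drug for 72 h over a 256-fold dose range (nine 2-fold or five 4-fold steps up to the top dose). Adherent lines were fixed and stained with the nucleic acid dye Syto60, suspension lines read with resazurin; signal relative to control wells, capped at 0 and 100%. One two-parameter sigmoid per drug and line, fitted in a mixed model over all curves with the slope shared within a line.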

CEP-701 = compound: C[C@]12O[C@H](C[C@]1(O)CO)n1c3ccccc3c3c4c(c5c6ccccc6n2c5c31)CNC4=O [CEP-701]; conditions: top dose 2 µM; top dose inferred
Experimental: as §1

SB 216763 = compound: Cn1cc(C2=C(c3ccc(Cl)cc3Cl)C(=O)NC2=O)c2ccccc21 [SB 216763]; conditions: top dose 10 µM; top dose inferred
Experimental: as §1

AR-42 = compound: CC(C)[C@H](C(=O)Nc1ccc(C(=O)NO)cc1)c1ccccc1 [AR-42]; conditions: top dose 5.12 µM; top dose inferred
Experimental: as §1

GDC0941 = compound: CS(=O)(=O)N1CCN(Cc2cc3nc(-c4cccc5[nH]ncc45)nc(N4CCOCC4)c3s2)CC1 [GDC0941]; conditions: top dose 4 µM; screen: GDSC drug entry 1527; top dose inferred
Experimental: as §1

## LP-1 (myeloma, suspension)
Pazopanib
  AUC: 0.99
  IC50: > 8000 nM
CEP-701
  AUC: 0.993
  IC50: > 2000 nM
SB 216763
  AUC: 0.993
  IC50: > 10000 nM
AR-42
  AUC: 0.374
  IC50: 153 nM

## MCF7 (breast, adherent)
Pazopanib
  AUC: 0.925
  IC50: > 8000 nM
CEP-701
  AUC: 0.816
  IC50: 1160 nM
SB 216763
  AUC: 0.917
  IC50: > 10000 nM
AR-42
  AUC: 0.924
  IC50: > 5120 nM

## MDA-MB-361 (breast, adherent)
Pazopanib
  AUC: 0.894
  IC50: > 8000 nM
CEP-701
  AUC: 0.741
  IC50: 608 nM
SB 216763
  AUC: 0.987
  IC50: > 10000 nM
AR-42
  AUC: 0.453
  IC50: 238 nM

## MDA-MB-453 (breast, adherent)
Pazopanib
  AUC: 0.958
  IC50: > 8000 nM
CEP-701
  AUC: 0.84
  IC50: 1610 nM
SB 216763
  AUC: 0.982
  IC50: > 10000 nM
AR-42
  AUC: 0.254
  IC50: 57.7 nM

## MDA-MB-468 (breast, adherent)
Pazopanib
  AUC: 0.955
  IC50: > 8000 nM
CEP-701
  AUC: 0.716
  IC50: 495 nM
SB 216763
  AUC: 0.988
  IC50: > 10000 nM
AR-42
  AUC: 0.817
  IC50: 2740 nM

## MG-63 (osteosarcoma, adherent)
Pazopanib
  AUC: 0.583
  IC50: 875 nM
CEP-701
  AUC: 0.689
  IC50: 465 nM
SB 216763
  AUC: 0.973
  IC50: > 10000 nM
AR-42
  AUC: 0.984
  IC50: > 5120 nM

## MKN28 (stomach, adherent)
Pazopanib
  AUC: 0.959
  IC50: > 8000 nM
CEP-701
  AUC: 0.904
  IC50: > 2000 nM
SB 216763
  AUC: 0.953
  IC50: > 10000 nM
AR-42
  AUC: 0.788
  IC50: 2300 nM

## MKN45 (stomach, adherent)
Pazopanib
  AUC: 0.983
  IC50: > 8000 nM
CEP-701
  AUC: 0.785
  IC50: 1100 nM
SB 216763
  AUC: 0.962
  IC50: > 10000 nM
AR-42
  AUC: 0.917
  IC50: > 5120 nM

## NCI-H28 (mesothelioma, adherent)
Pazopanib
  AUC: 0.976
  IC50: > 8000 nM
CEP-701
  AUC: 0.706
  IC50: 580 nM
SB 216763
  AUC: 0.916
  IC50: > 10000 nM
AR-42
  AUC: 0.916
  IC50: > 5120 nM

## NCI-H64 (small cell lung carcinoma, suspension)
Pazopanib
  AUC: 0.986
  IC50: > 8000 nM
CEP-701
  AUC: 0.78
  IC50: 616 nM
SB 216763
  AUC: 0.996
  IC50: > 10000 nM
AR-42
  AUC: 0.45
  IC50: 243 nM

## NCI-H460 (large cell lung carcinoma, adherent)
Pazopanib
  AUC: 0.99
  IC50: > 8000 nM
CEP-701
  AUC: 0.487
  IC50: 116 nM
SB 216763
  AUC: 0.988
  IC50: > 10000 nM
AR-42
  AUC: 0.951
  IC50: > 5120 nM

## NCI-H647 (non-small cell lung carcinoma, adherent)
Pazopanib
  AUC: 0.94
  IC50: > 8000 nM
CEP-701
  AUC: 0.715
  IC50: 526 nM
SB 216763
  AUC: 0.967
  IC50: > 10000 nM
AR-42
  AUC: 0.562
  IC50: 476 nM

## NCI-H838 (lung adenocarcinoma, adherent)
Pazopanib
  AUC: 0.965
  IC50: > 8000 nM
CEP-701
  AUC: 0.695
  IC50: 452 nM
SB 216763
  AUC: 0.987
  IC50: > 10000 nM
AR-42
  AUC: 0.649
  IC50: 844 nM

## NCI-H1703 (lung adenocarcinoma, adherent)
Pazopanib
  AUC: 0.839
  IC50: 7250 nM
CEP-701
  AUC: 0.554
  IC50: 181 nM
SB 216763
  AUC: 0.981
  IC50: > 10000 nM
AR-42
  AUC: 0.834
  IC50: 4400 nM

## NCI-H1734 (lung adenocarcinoma, adherent)
Pazopanib
  AUC: 0.985
  IC50: > 8000 nM
CEP-701
  AUC: 0.733
  IC50: 625 nM
SB 216763
  AUC: 0.977
  IC50: > 10000 nM
AR-42
  AUC: 0.601
  IC50: 625 nM

## NCI-H1993 (lung adenocarcinoma, adherent)
Pazopanib
  AUC: 0.93
  IC50: > 8000 nM
CEP-701
  AUC: 0.97
  IC50: > 2000 nM
SB 216763
  AUC: 0.855
  IC50: > 10000 nM
AR-42
  AUC: 0.701
  IC50: 1420 nM

## RCC-FG2 (kidney, adherent)
GDC0941
  AUC: 0.748
  IC50: 1600 nM
CEP-701
  AUC: 0.59
  IC50: 236 nM
SB 216763
  AUC: 0.971
  IC50: > 10000 nM
AR-42
  AUC: 0.628
  IC50: 795 nM

## RCC-JF (kidney, adherent)
GDC0941
  AUC: 0.676
  IC50: 828 nM
CEP-701
  AUC: 0.431
  IC50: 79.1 nM
SB 216763
  AUC: 0.976
  IC50: > 10000 nM
AR-42
  AUC: 0.452
  IC50: 232 nM

## RCC-JW (kidney, adherent)
GDC0941
  AUC: 0.625
  IC50: 559 nM
CEP-701
  AUC: 0.632
  IC50: 291 nM
SB 216763
  AUC: 0.985
  IC50: > 10000 nM
AR-42
  AUC: 0.617
  IC50: 676 nM

## RCC-MF (kidney, adherent)
GDC0941
  AUC: 0.741
  IC50: 1530 nM
CEP-701
  AUC: 0.617
  IC50: 289 nM
SB 216763
  AUC: 0.927
  IC50: > 10000 nM
AR-42
  AUC: 0.454
  IC50: 231 nM

## RVH-421 (melanoma, adherent)
GDC0941
  AUC: 0.786
  IC50: 2460 nM
CEP-701
  AUC: 0.597
  IC50: 254 nM
SB 216763
  AUC: 0.947
  IC50: > 10000 nM
AR-42
  AUC: 0.764
  IC50: 2560 nM

## SCC90 (head and neck, adherent)
GDC0941
  AUC: 0.864
  IC50: > 4000 nM
Pazopanib
  AUC: 0.954
  IC50: > 8000 nM
CEP-701
  AUC: 0.826
  IC50: 1980 nM
SB 216763
  AUC: 0.981
  IC50: > 10000 nM

## SNG-M (endometrium, adherent)
GDC0941
  AUC: 0.685
  IC50: 811 nM
Pazopanib
  AUC: 0.8
  IC50: 3760 nM
CEP-701
  AUC: 0.674
  IC50: 376 nM
SB 216763
  AUC: 0.983
  IC50: > 10000 nM

## SNU-61 (large intestine, adherent)
GDC0941
  AUC: 0.947
  IC50: > 4000 nM
CEP-701
  AUC: 0.91
  IC50: > 2000 nM
SB 216763
  AUC: 0.985
  IC50: > 10000 nM
AR-42
  AUC: 0.347
  IC50: 105 nM

## STS-0421 (soft tissue, adherent)
GDC0941
  AUC: 0.671
  IC50: 815 nM
Pazopanib
  AUC: 0.542
  IC50: 663 nM
CEP-701
  AUC: 0.605
  IC50: 256 nM
SB 216763
  AUC: 0.983
  IC50: > 10000 nM

## SW620 (large intestine, adherent)
GDC0941
  AUC: 0.946
  IC50: > 4000 nM
Pazopanib
  AUC: 0.99
  IC50: > 8000 nM
CEP-701
  AUC: 0.643
  IC50: 294 nM
SB 216763
  AUC: 0.985
  IC50: > 10000 nM

## SW626 (ovary, adherent)
GDC0941
  AUC: 0.828
  IC50: 3120 nM
Pazopanib
  AUC: 0.923
  IC50: > 8000 nM
CEP-701
  AUC: 0.804
  IC50: 1230 nM
SB 216763
  AUC: 0.982
  IC50: > 10000 nM

## UWB1.289 (ovary, adherent)
GDC0941
  AUC: 0.795
  IC50: 3030 nM
CEP-701
  AUC: 0.833
  IC50: > 2000 nM
SB 216763
  AUC: 0.969
  IC50: > 10000 nM
AR-42
  AUC: 0.641
  IC50: 957 nM

## YH-13 (glioma, adherent)
GDC0941
  AUC: 0.636
  IC50: 610 nM
CEP-701
  AUC: 0.545
  IC50: 167 nM
SB 216763
  AUC: 0.921
  IC50: > 10000 nM
AR-42
  AUC: 0.749
  IC50: 1750 nM

## YKG-1 (glioma, adherent)
GDC0941
  AUC: 0.848
CEP-701
  AUC: 0.599
  IC50: 235 nM
SB 216763
  AUC: 0.954
  IC50: > 10000 nM
AR-42
  AUC: 0.648
  IC50: 827 nM
